# Laboratory results as given in PubChem BioAssay AID463173 (ICCB-Longwood Screening Facility, Harvard Medical School, 2010).
# About 1,700 (3.3%) of roughly 52,000 compounds were called active. Cut-off read from the data, not from the text of the source: active = survival mostly below about 52% (no sharp cut-off); inactive = mostly above about 56%. Some of the results follow.
# Test system: Wild type
# Experiment: growth inhibition of S. aureus wild type versus tarO mutant, primary screen, teichoic acid synthesis inhibitors, RN4220, OD600 (AID 463173)
# Settings: S. aureus RN4220 wild type/DeltatarO growth, OD600, 18 h, active compounds read low; concentration not given here unless noted
row,Structure (SMILES),survival
1,CC(c1ccccc1)N1CCNCC1 (stereo unspecified),inactive: 101%
2,CCC1(CCc2ccncc2)C(=O)NC(=O)NC1=O,inactive: 114%
3,CCc1ccc(-n2nc(C)c3c2NC(=O)CSC3c2ccc(OC)cc2OC)cc1 (stereo unspecified),inactive: 94%
4,CCC(C(=O)Nc1ccccc1F)N1C(=O)CN=C(c2ccccc2)c2ccccc21 (stereo unspecified),inactive: 80%
5,CCOC(=O)c1ccc(NC(=O)c2cccn(Cc3ccccc3F)c2=O)cc1,inactive: 75%
6,CCN=Cc1c(O)n(C)c(=O)n(C)c1=O,inactive: 118%
7,N#Cc1cc(F)c(N2CCNCC2)cc1Cl,inactive: 130%
8,N#Cc1ccccc1NC(=O)c1cccn(Cc2ccccc2)c1=O,inactive: 70%
9,COc1ccc(-c2nc(CN3C(=O)CN=C(c4ccccc4Cl)c4cc(Cl)ccc43)c(C)o2)cc1OC,inactive: 77%
10,O=C(Cn1cc(C(=O)c2ccccc2)c2ccccc21)Nc1ccc(Br)cc1,inactive: 65%
11,CCCc1ccc(OCC(=O)Nc2ccc(Cl)cc2C(=O)c2ccccc2)cc1,inactive: 66%
12,Cc1cccc(CN2C(=O)CN=C(c3ccccc3)c3cc(Cl)ccc32)c1,inactive: 73%
13,CC(C)c1ccc(NC(=O)CN2C(=O)CN=C(c3ccccc3)c3ccccc32)cc1,inactive: 82%
14,O=C(NC1CC2CCC(C1)N2)c1ccccc1 (stereo unspecified),inactive: 96%
15,O=C(CNC1CCCCC1)N1CCC2(CC1)OCCO2,inactive: 110%
16,COc1ccc(OCC(=O)N2CCN(CCc3ccccn3)CC2)cc1,inactive: 82%
17,CC1(C)CC(NC(=O)CN2CCCC2=O)CC(C)(C)N1,inactive: 111%
18,Cc1ccc(-n2c(/C=C/c3cc(Br)cs3)nc3ccccc3c2=O)cc1C,inactive: 68%
19,COc1ccc(C)cc1NC(=O)c1cccn(Cc2ccccc2Cl)c1=O,inactive: 78%
20,N#CC(C#N)=Cc1ccc(N2CCCCC2)cc1,inactive: 112%
21,Cc1cccc(C)c1OCC(=O)Nc1ccc(Cl)cc1C(=O)c1ccccc1,inactive: 30%
22,O=C(COc1ccccc1[N+](=O)[O-])N1CCN(CCc2ccncc2)CC1,inactive: 85%
23,COc1ccc(CN2CCNCC2)cc1,inactive: 98%
24,C1CCN2C(C1)N1CCCCC1N1CCCCC21 (stereo unspecified),inactive: 110%
25,CCC(C)N1CCN(Cc2cc(OC)c(OC)cc2OC)CC1 (stereo unspecified),inactive: 123%
26,CN1C(=O)C(=Cc2ccco2)C(=O)N(C)C1=O,inactive: 109%

row,Structure (SMILES),survival
1,Cn1c(=O)n(C)c2cc(CNCCc3ccccc3F)ccc21,inactive: 88%
2,Cc1ccc(-n2c(/C=C/c3ccccc3)nc3ccccc3c2=O)cc1Cl,inactive: 86%
3,CC(=O)OC1(c2ccccc2)CCN(C)C2CCCCC21 (stereo unspecified),inactive: 112%
4,CN1/C(=C\C=C2C(=O)NC(=O)NC2=O)C(C)(C)c2ccccc21,inactive: 116%
5,CCCNCCc1ccccc1,inactive: 106%
6,COc1ccc(OC)c(CCNCc2c(C(=O)O)c(C)n(Cc3ccc(F)cc3Cl)c2C)c1,inactive: 99%
7,OC1(c2ccc(F)cc2)CC2CCC(C1)N2Cc1nnnn1C1CCCCC1 (stereo unspecified),inactive: 104%
8,COc1ccc(NC(=O)CCc2nc(C3=CCN(Cc4cccc(C)c4)CC3)no2)c(OC)c1,inactive: 77%
9,Cc1cc(OCC(=O)N2CCN(CCc3ccncc3)CC2)cc(C)c1Cl,inactive: 84%
10,CCC1(CC)C(=O)NC(=NCc2ccc(OC)cc2)N(C)C1=O,inactive: 99%
11,Cc1cccc(-n2c(/C=C\c3cccc(Br)c3)nc3ccccc3c2=O)c1,inactive: 126%
12,O=C1NC(=O)N(c2ccc3c(c2)OCO3)C(=O)/C1=C/c1ccsc1,inactive: 105%
13,COc1ccc(C2CC(=O)Oc3c2c(=O)oc2ccccc32)c(OC)c1OC (stereo unspecified),inactive: 70%
14,CC12CNCC(C)(CN(Cc3ccccc3)C1)C2,inactive: 98%
15,Cc1ccc(Cn2cccc(C(=O)Nc3ccc(C)c(Cl)c3)c2=O)cc1,inactive: 75%
16,Cc1ccccc1-c1nc2ccccc2c(=O)n1C,inactive: 113%
17,Cc1ccc(CNC(=O)CCCn2c(=O)c3sccc3n(CC(=O)Nc3c(C)cccc3C)c2=O)cc1,inactive: 91%
18,Cc1cccc(CNCCc2ccccc2)n1,inactive: 115%
19,COc1ccc2c(c1OC)C(=O)OC2C1c2cc3c(cc2CCN1C)OCO3 (stereo unspecified),inactive: 101%
20,CCc1cc2c(s1)NC(=O)CN=C2c1cccs1,inactive: 112%
21,CNCC(C)c1ccccc1 (stereo unspecified),inactive: 96%
22,OC1(c2ccc(F)cc2)CC2CCC(C1)N2Cc1nnnn1Cc1ccco1 (stereo unspecified),inactive: 103%
23,Cc1nnc(NC(=O)c2cccn(Cc3ccccc3)c2=O)s1,inactive: 91%
24,C1CCCN(C2CCNCC2)CC1,inactive: 106%
25,Cc1cccc(OC(C)C(=O)NCC2(N(C)C)CCCCC2)c1C (stereo unspecified),inactive: 88%
26,O=C(Nc1nc2ccccc2s1)c1cccn(Cc2ccccc2)c1=O,inactive: 73%

row,Structure (SMILES),survival
1,CCCc1nc(SC)ncc1C(=O)Nc1ccc(Cl)cc1C(=O)c1ccccc1,inactive: 84%
2,CCOc1ccc(CN(CCc2ccc3c(c2)OCO3)Cc2cccc(Br)c2)cc1,inactive: 65%
3,O=C(COc1ccccc1Cl)N1CCN(CCc2ccccn2)CC1,inactive: 110%
4,O=c1c2ccccc2nc(CN2CCOCC2)n1-c1cccc(C(F)(F)F)c1,inactive: 113%
5,O=C1C=C2C3CCN(CC3)C2CC1 (stereo unspecified),inactive: 112%
6,Cc1ccccc1-n1nc(C)c2c1NC(=O)CSC2c1ccccc1C(F)(F)F (stereo unspecified),inactive: 58%
7,COc1ccccc1CN1CCN(C(=O)COc2cccc(C)c2)CC1,inactive: 123%
8,COc1ccc(NC(=O)CN2C(=O)CN=C(c3ccccc3)c3ccccc32)c(OC)c1,inactive: 71%
9,CC(=O)Nc1c(O)[nH]c(=S)[nH]c1=O,inactive: 104%
10,CCOc1ccc(CN(CCc2ccc3c(c2)OCO3)Cc2ccc(CC)cc2)cc1,inactive: 54%
11,O=C(COc1ccc2ccccc2c1)N1CCN(Cc2ccncc2)CC1,inactive: 103%
12,Cc1oc2cc3oc(=O)c(CCC(=O)N4CCCCC4)c(C)c3cc2c1C,inactive: 113%
13,O=C(Nc1ccc(OC(F)(F)F)cc1)c1cccn(Cc2ccccc2Cl)c1=O,inactive: 131%
14,O=C(c1ccc2c(c1)N(Cc1c(F)cccc1Cl)C(=O)c1ccccc1S2)N1CCC2(CC1)OCCO2,inactive: 82%
15,Cc1ccc(C)c(CN2C(=O)c3ccccc3Sc3ccc(C(=O)N4CCC5(CC4)OCCO5)cc32)c1,active: 14%
16,Cc1cccc(CN2C(=O)CN=C(c3ccccc3Cl)c3cc(Cl)ccc32)c1,inactive: 73%
17,COc1ccc(N=C2SCCCN2C)cc1,inactive: 91%
18,C=CCn1c(C)c(C(=O)OCC)c2cc(O)ccc21,inactive: 110%
19,O=C1CC(c2cccnc2)Nc2ccc3ccccc3c21 (stereo unspecified),inactive: 98%
20,Cc1ccc2scc(N3CCN(C)CC3)c(=O)c2c1,inactive: 136%
21,COc1ccc(C=C(C#N)C#N)c2ccccc12,inactive: 101%
22,Cc1ccc(-n2c(/C=C/c3ccccc3)nc3ccccc3c2=O)cc1C,inactive: 74%
23,CCCCn1c(=O)c(C(=O)NC)c(O)c2ccccc21,inactive: 112%
24,O=c1c2ccccc2nc(CN2CCOCC2)n1-c1ccccc1F,inactive: 116%
25,CC(=O)c1ccc(NC(=O)c2sc3nc4c(cc3c2N)N2CCC4CC2)cc1,inactive: 95%
26,Cc1ccc(-n2c(/C=C/c3cccc(C(F)(F)F)c3)nc3ccccc3c2=O)cc1,inactive: 71%

row,Structure (SMILES),survival
1,CCC(CC)NC1CCCCC1OC (stereo unspecified),inactive: 117%
2,NC(=O)c1ccc(NC(=O)c2cccn(Cc3ccccc3)c2=O)cc1,inactive: 89%
3,CCOc1ccc(CN2C(=O)c3ccccc3Sc3ccc(C(=O)N4CCC5(CC4)OCCO5)cc32)cc1,inactive: 85%
4,Cc1c(C(c2ccc(O)cc2)c2c(O)c3ccccc3oc2=O)c(=O)n(-c2ccccc2)n1C (stereo unspecified),inactive: 47%
5,CCSc1nnc(NC(=O)c2cccn(Cc3ccc(Cl)cc3)c2=O)s1,inactive: 45%
6,COc1ccccc1CNCCc1ccccc1,inactive: 102%
7,N#CC1=C(N)Oc2c(c(=O)oc3ccccc23)C1C1CC=CCC1 (stereo unspecified),inactive: 113%
8,Cc1cccc(-n2c(/C=C/c3cccc4ccccc34)nc3ccccc3c2=O)c1,inactive: 74%
9,O=c1c2ccccc2nc(/C=C\c2cccc(Br)c2)n1-c1ccc(O)cc1,inactive: 108%
10,COc1ccc(NC(=O)c2cccn(Cc3ccc(Cl)cc3)c2=O)c(OC)c1,inactive: 66%
11,N#Cc1cc2c(nc1SCC(=O)Nc1ccc(Cl)c(C(F)(F)F)c1)C1CCN2CC1,active: 2%
12,O=C1NC(=O)C(C(CC(=O)c2ccccc2)c2ccccc2)C(=O)N1 (stereo unspecified),inactive: 116%
13,O=C(COc1ccccc1)N1CCN(Cc2ccc(Br)cc2)CC1,inactive: 100%
14,O=C(/C=C/c1ccco1)C1C(=O)c2ccccc2C1=O,inactive: 111%
15,CC1CN(C)C(C)(C)CC1(O)c1ccccc1 (stereo unspecified),inactive: 105%
16,O=C(Nc1ccccc1C(F)(F)F)c1cccn(Cc2ccccc2)c1=O,inactive: 69%
17,O=C(COc1ccccc1[N+](=O)[O-])N1CCN(CCc2ccccn2)CC1,inactive: 81%
18,Cc1ccccc1-n1c(/C=C/c2ccccc2F)nc2ccccc2c1=O,active: 7%
19,NC(=O)CN1C2CCC1CC(NC(=O)C1CC1)C2 (stereo unspecified),inactive: 103%
20,Cc1ccc(-n2c(/C=C/c3cccc4ccccc34)nc3ccccc3c2=O)cc1,inactive: 73%
21,COCCNC(=O)CN1C2CCC1CC(O)(c1cccnc1)C2 (stereo unspecified),inactive: 121%
22,CCOC(=O)c1ccc(NC(=O)CSc2nc3c(cc2C#N)N2CCC3CC2)cc1,inactive: 84%
23,S=c1[nH]nc(CCN2CCN(c3ccc(Cl)cc3)CC2)n1-c1ccccc1,inactive: 111%
